According to PubChem BioAssay AID1240 (Sanford-Burnham Center for Chemical Genomics, 2008):
Hit rate of the full screen: of about 50,000 compounds, about 800 (1.6%) showed an effect of 50% or more. The list shows a part of the results.

These molecules were tested against Bcl-2-like protein 10 (Homo sapiens) (UniProt Q9HD36) (assay: Phenotype converters, Bcl-B/TR3 peptide binding displacement, primary biochemical FP (AID 1240;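 note: 0% = Bcl-B with tracer peptide and DMSO and 100% = tracer peptide lacking Bcl-B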)). Conditions: GST-Bcl-B / FITC-TR3 peptide fluorescence polarization; stronger effect = higher value; compound at 3.75 mg/L.
Sequence of UniProt Q9HD36 (Q9HD36 whole entry, looked up): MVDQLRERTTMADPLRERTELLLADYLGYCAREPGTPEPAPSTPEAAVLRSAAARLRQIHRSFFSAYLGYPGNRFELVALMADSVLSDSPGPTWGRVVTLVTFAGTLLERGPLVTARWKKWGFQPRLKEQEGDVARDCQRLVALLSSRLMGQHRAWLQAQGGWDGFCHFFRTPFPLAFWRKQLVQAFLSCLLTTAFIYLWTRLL
In the case of `COc1ccc(C2Nc3ccccc3C(=O)N2c2ccccc2)cc1Cn1nc(C)c(Cl)c1C` (stereo not drawn), the displacement is reported as -2.4%.
For `CCOC(=O)C1=C(c2ccccc2)N=C2SCC(=O)N2C1c1cccc(OC)c1OC` (stereo not drawn), the displacement was 3.9%.
Work on `Clc1ccccc1-c1nc(Cc2ccccc2)no1` yielded a displacement of -2.2%.
For `Cc1ccc(C(=O)COC(=O)c2ccccc2)cc1`, the displacement was -2.8%.
For `N/C(=N\OC(=O)c1ccc2ccccc2c1)c1ccccn1`, the displacement was -1%.
`CC(=O)N(c1ccccc1)C1CC(C)Nc2ccccc21` (stereo not drawn) gave a displacement of -3.6%.
In the case of `O=Cc1ccc(-c2ccc(Cl)c(C(=O)O)c2)o1`, the displacement is reported as 5.2%.
In the case of `Cc1ccc(C2/C(=C(/O)c3ccccc3)C(=O)C(=O)N2CC2CCCO2)cc1` (stereo not drawn), the displacement is reported as -15.1%.
Molecule `COc1cc(/C=C2\SC(=NCc3ccccc3)N(Cc3ccccc3)C2=O)cc(Br)c1O` has a displacement of -5.7%.
Work on `O=C(O)CSCC(=O)c1ccccc1` yielded a displacement of -0.2%.
`O=C(/C=C/c1cccs1)N1CCN(c2ccccc2)CC1` was tested, and the displacement was -16.4%.
Molecule `O=C(c1ccc(C#CC2(O)CCCCC2)cc1)N1CCN(c2ccccc2Cl)CC1` has a displacement of -13.4%.
`CCn1c(C(O)c2ccc(OCc3ccccc3)c(OC)c2)nc2ccccc21` (stereo not drawn) was tested, and the displacement was 2.7%.
`O=[N+]([O-])c1ccc(N/N=C\c2ccc(N3CCOCC3)o2)nc1` gave a displacement of -18.1%.
`Cc1ccc(S(=O)(=O)c2c(N)n(CCO)c3nc4ccccc4nc23)cc1` was tested, and the displacement was 12.6%.
`COCCOC(=O)c1ccc(NC(=O)COc2ccc(Cl)cc2)cc1` showed a displacement of -4.5%.
With `CC1=NN(c2ccccc2)C(=O)/C1=C\c1c(O)n(-c2ccc(F)cc2)[nH]c1=O` the displacement was 0%.
In the case of `O=C1c2cccc3cccc(c23)C(=O)N1CCN1CCN(S(=O)(=O)c2cccc3cccnc23)CC1`, the displacement is reported as -2.6%.
In the case of `Cc1ccc(C(O)c2nc3ccccc3n2C)cc1` (stereo not drawn), the displacement is reported as -11.1%.
`COc1ccc(N(CC(=O)N2CCOCC2)S(=O)(=O)c2ccccc2)cc1` showed a displacement of 24%.
`O=C(NC(=S)Nc1ccccc1SC(F)(F)C(F)(F)C(F)(F)F)c1cccs1` gave a displacement of -9.7%.
Molecule `COC(=O)C1=C(C(=O)OC)SC(=C2C(=S)C(C)(C)N(C(=O)c3ccccc3F)c3cc(C)ccc32)S1` has a displacement of -7.9%.
Work on `O=C(CSc1n[nH]c(=O)[nH]c1=O)c1ccccc1[N+](=O)[O-]` yielded a displacement of -4.9%.
For `Cc1cccc(/C=C(/C#N)C(=O)Nc2cccc(Br)c2)c1`, the displacement was -3.7%.
For `CC(=O)CC(=O)Nc1ccccc1-c1ccccc1`, the displacement was -9.2%.
Molecule `CC(=O)c1cccc(NC(=O)COc2ccc(-c3ccc(C)cc3)cc2)c1` has a displacement of 5.6%.
With `O=C(Nc1cccc(C(F)(F)F)c1)C1CN(S(=O)(=O)c2ccccc2)CCN1S(=O)(=O)c1ccccc1` (stereo not drawn) the displacement was 8.8%.
For `COc1ccc(Nc2ccccc2)c(C)c1`, the displacement was -9.3%.
In the case of `O=c1[nH]c(=O)n(Cc2ccc(F)cc2)c(O)c1/C=C1/C=CC=N1`, the displacement is reported as 32%.
Work on `COc1ccc(C=Nc2cccc(-c3cnc[nH]3)c2)cc1` yielded a displacement of 1%.
In the case of `COc1nc(N=C(N)N)nc2c(C)cccc12`, the displacement is reported as -2.9%.
Work on `COc1ccc(C2CC(C(F)(F)F)n3nc(C(=O)Nc4ccc5c(c4)OCO5)c(Cl)c3N2)cc1OC` (stereo not drawn) yielded a displacement of 15.9%.
In the case of `CN1CCN(C(=O)c2sc3cc(Cl)ccc3c2Cl)CC1`, the displacement is reported as 1%.
`COc1ccc(CCNC(=O)COc2ccc(OC)cc2)cc1` showed a displacement of 13.5%.
`O=C(NC(C(=O)O)C12CC3CC(CC(C3)C1)C2)c1ccc([N+](=O)[O-])cc1` (stereo not drawn) gave a displacement of -2.7%.
`O=C/C(=C\Nc1cccc(N/C=C(\C=O)c2nc3cc(Cl)ccc3o2)n1)c1nc2cc(Cl)ccc2o1` was tested, and the displacement was 36.2%.
`Cc1cccc(N=C2NC(=O)CS2)c1C` gave a displacement of 9.5%.
In the case of `CC(=O)CC(=O)Nc1ccccc1Br`, the displacement is reported as 7.3%.
`O=S(=O)(NCCc1ccccc1)c1ccc2ccccc2c1` gave a displacement of 1.6%.
For `CC1=C(C(=O)c2ccccc2)C(c2cccc([N+](=O)[O-])c2)NC(=O)N1` (stereo not drawn), the displacement was 1.1%.
With `O=P(OCCN1CCOCC1)(c1ccccc1)c1ccccc1` the displacement was 18.9%.
`CCC(=O)Nc1cc(-c2nc3ccccc3o2)ccc1OC` was tested, and the displacement was -8.7%.
Molecule `CC1=C(C#N)c2nc(N)c(C#N)c(C)c2/C1=C/c1ccc(-c2ccc([N+](=O)[O-])cc2)o1` has a displacement of -2.6%.
`CCc1cc(C)cc(OCCn2cc(C=C3C(=O)NC(=S)NC3=O)c3ccccc32)c1` was tested, and the displacement was 14.7%.
With `O=C1CN(C(=O)c2ccc(F)cc2)c2ccccc2N1` the displacement was 15.5%.
Work on `O=C1N/C(=N\N=C\c2ccccc2O)SC1Cc1ccc(Br)cc1` (stereo not drawn) yielded a displacement of -3.5%.
In the case of `O=C1/C(=C/c2ccc(F)cc2)SC(=S)N1c1ccc(F)cc1`, the displacement is reported as 11.8%.
`CC1C(C)C(O)(c2ccccc2)CCN1C` (stereo not drawn) gave a displacement of -4.2%.
`O=C(CSCC(=O)Nc1ccc2c(c1)oc1ccccc12)Nc1ccccc1` gave a displacement of 0%.
`COc1ccc(-c2cc(C3CC3)nc(SC)c2C#N)cc1` gave a displacement of 0.1%.
`Cc1c(NC(=O)C2(C)CCCCC2)c(=O)n(-c2ccccc2)n1C` gave a displacement of 5.8%.
In the case of `O=C(Nc1ccccc1Cl)c1ccc2ccccc2n1`, the displacement is reported as 1%.
`CC(=O)OC1(C[N+](=O)[O-])C2CC3CC(C2)CC1C3` (stereo not drawn) showed a displacement of -4.7%.
Molecule `CCOC(=O)C1=C(O)/C(=C/c2ccc(OCC(N)=O)cc2)N=C1C` has a displacement of 40%.
Work on `Cc1ccc(C(O)(c2ccccc2)c2ccccc2C(C)N(C)C)c(C)c1` (stereo not drawn) yielded a displacement of 3%.
With `O=C1CCCC(=O)C1c1cc(NS(=O)(=O)c2ccccc2)ccc1NS(=O)(=O)c1ccccc1` the displacement was 6.1%.
For `CC(=O)c1c(N2CCCC2)nc(=S)n(-c2ccccc2)c1C`, the displacement was 1.1%.
Molecule `O=C1CC(N(Cc2ccc3c(c2)OCO3)C(=S)Nc2ccccc2)C(=O)N1c1ccc(Cl)cc1` (stereo not drawn) has a displacement of -2.1%.
`CCOC(=O)c1ccc(NC(=O)C(=O)NCCOC)cc1` showed a displacement of -2.9%.
Molecule `COc1cc2c(cc1NC(=O)CCN1C(=O)c3ccccc3C1=O)oc1ccccc12` has a displacement of 4.6%.
For `C=CCc1cc(/C=C2\C(=O)NC(=O)N(c3ccc(C)cc3)C2=O)cc(OC)c1OCC(=O)OC`, the displacement was -0.2%.
`O=C(O)C1CCCCC1C(=O)Nc1nc(-c2ccc([N+](=O)[O-])cc2)cs1` (stereo not drawn) gave a displacement of -5.4%.
In the case of `O=C(Cc1ccc(Cl)cc1)N/N=C/Cc1ccccc1`, the displacement is reported as 4.7%.
Molecule `CCN(CC)C(=O)CSc1nc2ccc([N+](=O)[O-])cc2s1` has a displacement of 4.3%.
`COc1ccc(C(=O)NNC(=O)c2ccccc2OC)cc1OC` was tested, and the displacement was 0%.
`COc1ccc(N2C(=O)/C(=C\c3cc4c(cc3[N+](=O)[O-])OCO4)SC2=S)cc1` showed a displacement of 10%.
With `CC(C)CC(=O)NC(NC(=O)CC(C)C)c1ccccc1` the displacement was 1%.
Work on `C=CCN1C(=O)CSC1=Nc1ccc(C(=O)O)cc1` yielded a displacement of -2.4%.
Molecule `CC(=O)c1ccc(NC(=S)NC(NC(=O)c2ccccc2)C(Cl)(Cl)Cl)cc1` (stereo not drawn) has a displacement of -5.8%.
`COc1cc(NS(=O)(=O)c2ccc(C)cc2)cc(OC)c1O` showed a displacement of 13.5%.
`CCC(C(=O)Nc1cc(C)on1)c1ccccc1` (stereo not drawn) was tested, and the displacement was 3.2%.
`COc1cccc(N2C(=O)/C(=C/C(C)=C/c3ccccc3)SC2=S)c1` gave a displacement of 0.4%.
`O=C(CSCC(=O)Nc1ccc2ccccc2c1)NCc1ccccc1` showed a displacement of 12.2%.
`O=C1c2ccc(Oc3ccc([N+](=O)[O-])cc3)cc2C(=O)N1c1cccc(-c2nc3ccccc3o2)c1` showed a displacement of -3.8%.
`N#Cc1ccccc1NC(=O)Nc1cccc(Cl)c1` gave a displacement of 18.9%.
In the case of `CCc1ccc(-n2c(C)cc(/C=N/NC(=O)c3ccncc3)c2C)cc1`, the displacement is reported as -35.3%.
`COc1ccc2oc(=O)c(C(=O)Nc3ccc(S(N)(=O)=O)cc3)cc2c1` was tested, and the displacement was 10.9%.
`CC(C)c1nnc(NC(=O)CSc2ncn[nH]2)s1` was tested, and the displacement was 9.4%.
In the case of `Cc1cccc(OCC(=O)n2cnnc2N)c1`, the displacement is reported as 11.4%.
`Cc1ccc(-n2nc3cc(C)c(NC(=O)c4ccc([N+](=O)[O-])cc4)cc3n2)cc1` showed a displacement of -1.5%.
In the case of `COc1ccc(CCNC(=O)c2sc3cc(C)ccc3c2Cl)cc1OC`, the displacement is reported as -4.3%.
`CCOC(=O)c1c(C)[nH]c(C)c1-c1ccccc1Cl` showed a displacement of 5.8%.
Work on `CCCc1cc(=O)oc2cc(OCc3cccc(Cl)c3)ccc12` yielded a displacement of -0.7%.
`COc1ccc(NC(=O)c2ccc(CN(c3cc(Cl)ccc3C)S(=O)(=O)c3ccccc3)cc2)c(OC)c1` gave a displacement of 10.8%.
Work on `CC(=O)Nc1ccc2sc(C)nc2c1` yielded a displacement of 12.9%.
`O=C(N/C(=C\c1cccnc1)C(=O)N1CCNCC1)c1ccccc1` was tested, and the displacement was -0.3%.
For `CC(=O)c1ccc(N2C(=O)CC(N3CCN(c4ccccn4)CC3)C2=O)cc1` (stereo not drawn), the displacement was -0.9%.
`Cc1ccc(NC(=O)c2cc(-c3cccs3)nc3ccccc23)cc1` showed a displacement of 2.6%.
Molecule `C=CCc1cccc2cc(C(=O)NC3=C(C#N)CCC3)c(=O)oc12` has a displacement of -6.2%.
`COc1cc(/C=C2/S/C(=N\S(=O)(=O)c3ccccc3)NC2=O)ccc1O` showed a displacement of -23.7%.
Work on `OC(CCOc1cccc2ccccc12)CN1CCN(CC(O)COc2cccc3ccccc23)CC1` (stereo not drawn) yielded a displacement of -1%.
Work on `CCN(CC)CCCCCOc1ccc(Cl)cc1` yielded a displacement of 10%.
Work on `O=C(c1ccccc1)c1ccc(C(=O)N2CCN(c3ccc(F)cc3)CC2)o1` yielded a displacement of -8.1%.
Work on `NC(=O)NC(Cc1c[nH]c2ccccc12)C(=O)O` (stereo not drawn) yielded a displacement of 8.6%.
Molecule `Cc1cc([N+](=O)[O-])ccc1N/C=C/C(=O)c1ccc(Cl)c(Cl)c1` has a displacement of 36.3%.
In the case of `O=C1CCCc2c1[nH]c1ccc(C34CC5CC(CC(C5)C3)C4)cc21`, the displacement is reported as 13%.
Work on `O=C(c1cccc(Cl)c1)N1CCN(Cc2cccnc2)CC1` yielded a displacement of -3.6%.
`Cc1ccc(/C=C2\SC(=S)N(CCC(=O)Nc3ccc(S(N)(=O)=O)cc3)C2=O)cc1` was tested, and the displacement was 7.1%.
`C=CCn1c(SCC(=O)NCc2cccnc2)nc2sc(C)c(C)c2c1=O` was tested, and the displacement was 1.4%.
`O=C/C(=C\Nc1ccc(S(=O)(=O)CCO)cc1)c1nc2ccccc2o1` showed a displacement of 9.7%.
`COc1ccc(C2NC(=O)NC(O)(C(F)(F)F)C2C(=O)c2ccc(Br)cc2)cc1` (stereo not drawn) showed a displacement of 12.2%.
`Clc1ccc(/C=N/Nc2nc3ccccc3s2)c(Cl)c1` gave a displacement of 16.9%.
With `O=C(N/C(=C/c1cccs1)c1nc2ccccc2[nH]1)c1ccccc1` the displacement was 10.1%.
For `CCC(C)c1ccc(NC(=O)c2ccc3c(c2)OCCO3)c(O)c1` (stereo not drawn), the displacement was 2.4%.
In the case of `Cc1ccc(C(=O)O/N=C(\N)c2ccc(Cl)cc2)cc1[N+](=O)[O-]`, the displacement is reported as 1.3%.
With `COc1ccc(Cl)cc1NC(=O)c1nn2c(c1Cl)NC(c1cccs1)CC2C(F)(F)F` (stereo not drawn) the displacement was -1.8%.
In the case of `CCc1nc2ccccc2c(NC(=O)CNC(C)(C)CC(C)(C)C)c1C`, the displacement is reported as -10.1%.
`CCCCN(C)C(=O)c1ccc(C(=O)N(C)CCCC)cc1` was tested, and the displacement was -3.6%.
